Data taken from PubChem BioAssay AID1645887 (National Center for Advancing Translational Sciences (NCATS), 2021).
Where “and” joins values, the source holds several entries; their conditions need not be identical. Equal entries are not always repeated. Out of some 16,000 compounds screened, about 40 (0.2%) were called active. Roughly 1% stayed inconclusive and do not appear here. The call rests on the fitted dose curve; in most records, active means well fitted activation curve with a large enough effect; inconclusive means small, poorly fitted or top-dose-only effect, or another doubt; inactive means no such curve, though single readings can be large or run the other way. The list shows a part of the results. Positions of bridges follow the written chain, without caps; N, C: chain ends. Non-standard residues stand in square brackets, D forms with d. Residues, ends and D or L forms follow the SMILES beside them. ξ: configuration not given here. *: point of attachment. d(aThr) = C[C@@H](O)[C@@H](N)C(=O)O; ξThr(3R) = C[C@@H](O)C(N)C(=O)O; X8 = CC[C@@H](C)CCCCC(=O)*; dDab = NCC[C@@H](N)C(=O)O

Biological target: Rap guanine nucleotide exchange factor 4 (Homo sapiens) (UniProt Q8WZA2)
UniProt Q8WZA2, sequence (Q8WZA2 whole entry, looked up): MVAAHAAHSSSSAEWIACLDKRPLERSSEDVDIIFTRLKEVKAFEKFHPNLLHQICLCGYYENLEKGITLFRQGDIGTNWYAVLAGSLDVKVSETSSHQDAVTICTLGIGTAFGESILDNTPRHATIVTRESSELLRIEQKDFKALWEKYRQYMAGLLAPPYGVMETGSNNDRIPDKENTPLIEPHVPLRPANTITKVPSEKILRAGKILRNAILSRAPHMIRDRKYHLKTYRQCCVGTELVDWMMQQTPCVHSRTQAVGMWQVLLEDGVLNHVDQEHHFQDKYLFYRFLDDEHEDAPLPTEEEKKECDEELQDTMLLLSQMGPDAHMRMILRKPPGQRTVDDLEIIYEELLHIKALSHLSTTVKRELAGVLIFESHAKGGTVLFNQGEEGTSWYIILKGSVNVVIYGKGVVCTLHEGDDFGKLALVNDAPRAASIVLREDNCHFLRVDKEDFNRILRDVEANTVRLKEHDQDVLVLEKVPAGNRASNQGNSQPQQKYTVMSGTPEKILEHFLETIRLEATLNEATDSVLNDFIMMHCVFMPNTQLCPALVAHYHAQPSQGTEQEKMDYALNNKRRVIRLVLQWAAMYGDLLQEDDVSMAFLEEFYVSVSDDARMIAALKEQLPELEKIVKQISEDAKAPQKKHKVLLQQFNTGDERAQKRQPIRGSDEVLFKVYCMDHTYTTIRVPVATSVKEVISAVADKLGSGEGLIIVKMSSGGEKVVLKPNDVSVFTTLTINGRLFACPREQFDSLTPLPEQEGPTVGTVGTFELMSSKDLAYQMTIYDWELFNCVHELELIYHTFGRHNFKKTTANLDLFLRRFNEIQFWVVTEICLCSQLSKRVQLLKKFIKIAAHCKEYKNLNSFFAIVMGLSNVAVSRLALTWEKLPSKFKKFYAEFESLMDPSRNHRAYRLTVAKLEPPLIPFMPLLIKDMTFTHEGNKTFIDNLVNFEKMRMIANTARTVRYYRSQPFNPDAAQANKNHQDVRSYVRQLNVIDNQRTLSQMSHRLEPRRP
Experiment: Validation qHTS for agonist of cAMP-regulated guanine nucleotide exchange factor 4 (EPAC2);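 further: exchange makes BODIPY-GDP fluorescence drop when released from Rap1B; series mostly up to about 150 µM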
Conditions: EPAC2 Rap1B BODIPY-GDP exchange, fluorescence; activation: hits give high values
Procedure, shortened: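 Fluorescent exchange assay: 100 nM EPAC2 with 250 nM RAP1B-BODIPY-GDP and 50 uM GDP; compound added, 5 min at room temperature, then read (ex 480/em 540 nm) every 5 min for 30 min. Normalized to 6.5 mM cAMP agonist control.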
On the % scale 0 is the no-effect control and ±100 the full control effect.

activation, inactive:
C=CC1=C(C)/C(=C/c2[nH]c(Cc3[nH]c(/C=C4\NC(=O)C(C)=C4C=C)c(C)c3CCC(=O)O)c(CCC(=O)O)c2C)NC1=O 25%
O=C(NCCc1nnc2n1CCN(Cc1ccc(F)cc1)CC2)c1ccco1 -6.79%
COc1ccc(CN2CCC3(CCC(CNC(=O)c4ccco4)O3)CC2)c(OC)c1C (stereo unspecified) 2.04%
Cc1ccc(C(=O)Cn2c3c(sc2=N)CCCC3)cc1 -11%
CC(C)(C)NC(=O)[C@H]1CC[C@H]2[C@@H]3CC[C@H]4NC(=O)C=C[C@]4(C)[C@H]3CC[C@]12C 7.71%
N[C@]1(C(=O)O)CCc2cc(P(=O)(O)O)ccc21 -17%
O=Cc1cccc(C=O)c1 -13.6%
CC(C)c1c(C(=O)NCc2ccncc2)cnn1-c1nccc(-c2cccs2)n1 -6.96%
C=CC[N+]1([C@H]2C[C@H]3[C@@H]4CC[C@H]5C[C@H](O)[C@@H](N6CCOCC6)C[C@]5(C)[C@H]4CC[C@]3(C)[C@H]2OC(C)=O)CCCC1 -7.35%
c1ccc(Nc2nc(-c3ccc4c(c3)OCO4)nc3ccccc23)cc1 -6.54%
CC(C)=CCCC1(C)C=Cc2c(O)c3c(c(CC=C(C)C)c2O1)OC12C(=CCCC1C(C)(C)O[C@@]2(C/C=C(\C)C(=O)O)C(=O)O)C3=O (stereo partly specified) -41%
COc1cccc(CNC(=O)c2c(OC)cc(=O)n3c2CCN(C(=O)c2cc(C)ccc2C)CC3)c1 -2.82%
Cc1ccccc1-c1cncnc1N1CCNCC1 -17.2%
CC(=O)N1CCC[C@H]1C(=O)NCC1Cc2cc(-c3cccc(OC(F)(F)F)c3)ccc2O1 (stereo partly specified) -14.1%
CCCc1c(OCCCOc2ccc(OCC(=O)O)cc2)ccc(CC=O)c1O -36.1%
Nc1nc(N)c2nc(-c3ccccc3)c(N)nc2n1 -16.8% and -14.5% and -59.9%
CC[C@@H](C)CCCCC(=O)N[C@H](CCN)C(=O)N[C@@H](C(=O)N[C@H](CCN)C(=O)N[C@@H]1CCNC(=O)C([C@@H](C)O)NC(=O)[C@@H](CCN)NC(=O)[C@@H](CCN)NC(=O)[C@@H](CC(C)C)NC(=O)[C@@H](Cc2ccccc2)NC(=O)[C@@H](CCN)NC1=O)[C@@H](C)O (stereo partly drawn) (X8-[dDab][d(aThr)][dDab][dDab][dDab][dF][dL][dDab][dDab][ξThr(3R)]; lactam 4-C) -7.03%
C[C@H]1[C@H]2CC[C@H]3[C@@H]4CC=C5C[C@@H](N(C)C)CC[C@]5(C)[C@H]4CC[C@]23CN1C -13.8%
C=C[C@@H]1c2c(F)cccc2N(S(=O)(=O)c2ccc(C)cc2)[C@H](c2ccc(C(=O)OC)cc2)C1(C#N)C#N -10.5%
O=C1O[C@H]2[C@H](O)[C@@H]1OC(O)[C@H]2O (stereo partly specified) 17.7%
O=C1CCN(CCc2ccccc2)CCN1[C@H](CO)Cc1ccccc1 -5.71%
CC(C)C(=O)c1c(C(C)C)nn2ccccc12 -21.6% and -10.6% and -30.4%
COC(=O)[C@@H]1CCCN1C(=O)c1c(OC)cc(=O)n2c1CCN(Cc1cc(OC)ccc1F)CC2 -8.61%
CC(C)(C)N1[C@@H](CC(=O)O)c2cc(C(F)(F)F)ccc2S1(=O)=O -8.89%
Cn1c(=O)c(-c2cc(F)cc(F)c2)nc2cnc(N3CCOCC3)nc21 -12.8%
N#Cc1ccc(CN2CCC3(CC2)CCN(C(=O)c2ccncc2)CC3)cc1 -3.76%
CCCCCCCCCOC(=O)C1N2C(=O)[C@@H](NC(=O)COc3ccccc3)[C@H]2SC1(C)C (stereo partly specified) 0.335%
CN(Cc1ccccc1)c1ccc(C=O)cc1 -1.58%
CCC1CN(Cc2c(C)nc3sccn23)Cc2cc(OC)ccc2O1 (stereo unspecified) -7.58%
CCN1CCCC1CNC(=O)c1cc(S(=O)(=O)CC)ccc1OC (stereo unspecified) -18.4% and 3.72%
C[C@H](O)[C@H](O)[C@H]1CNc2nc(N)[nH]c(=O)c2N1 -13.8%
CC1CC[C@@]23CCC4(C)[C@@]5(C)CCC6C(C)(C)C(O)CC[C@@]6(C)C5C=C[C@@]4(OC2=O)C3C1C (stereo partly specified) -12.8%
Cc1c(C(=O)N2CCCC(c3ccccc3)C2)sc2ncnc(NCCc3ccccn3)c12 (stereo unspecified) -0.0832%
COc1cc(=O)n2c(c1C(=O)NC(C)c1ccco1)CCN(C(=O)c1ccc(F)cc1Cl)CC2 (stereo unspecified) -5.34%
CCN(CCO)C(=O)c1cnn(-c2ncc3c(n2)-c2ccccc2CCC3)c1C1CC1 3.95%
OC(CCN1CCCC1)(c1ccccc1)C1CCCCC1 (stereo unspecified) -5.51% and -7.43%
O=C(c1ccncc1)N1CCC2(CC1)CCN(c1ncccn1)CC2 -7.61%
Cn1c(=O)c2c(ncn2CCOC(=O)C(C)(C)Oc2ccc(Cl)cc2)n(C)c1=O 3.65%
CC1COC2=C1C(=O)C(=O)c1c2ccc2c1CCCC2(C)C (stereo unspecified) -9.58%
CC(=O)N1CCC[C@@]2(CCN(Cc3cc(C(F)(F)F)cc(C(F)(F)F)c3)C2)C1 -12.1%
CC(=O)/C(=C\c1ccccc1)CC(=O)O -16.7%
COc1cc(=O)n2c(c1C(=O)N(C)Cc1nonc1C)CCN(Cc1c(F)cccc1F)CC2 -13.9%
CC(C)NCC(O)COc1cccc2[nH]ccc12 (stereo unspecified) 0.622% and 4.89% and -59.9%
COC(=O)[C@H]1[C@H]2C[C@H]3c4[nH]c5ccccc5c4CCN3C[C@H]2CC[C@@H]1O -11.7% and -18.8%
Cc1ccccc1C(=O)O[C@H]1[C@H](Cc2ccccc2)NS(=O)(=O)[C@H]2CC3C=C[C@]12O3 -9.85%
CN(C)c1nc2cc3c(cc2cc1CN(CC1CCCO1)C(=O)/C=C/c1cccs1)OCO3 (stereo unspecified) -9.24%
